# Experimental data published in paper PMC4336329 (PLoS ONE, 2015).
# Out of some 310,000 compounds screened, about 14,000 (4.5%) showed an effect of 50% or more. The effect is printed as a negative number. The list shows a part of the results.
# Target: human ether-à-go-go-related gene (hERG) potassium channel (human, UniProt Q12809)
# Assay: primary screen, population patch clamp on CHO cells stably expressing hERG
# 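Note: peak tail current of the secondary pulse compared with the same well before compound.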
# Sequence of human ether-à-go-go-related gene (hERG) potassium channel (Q12809 whole entry, looked up): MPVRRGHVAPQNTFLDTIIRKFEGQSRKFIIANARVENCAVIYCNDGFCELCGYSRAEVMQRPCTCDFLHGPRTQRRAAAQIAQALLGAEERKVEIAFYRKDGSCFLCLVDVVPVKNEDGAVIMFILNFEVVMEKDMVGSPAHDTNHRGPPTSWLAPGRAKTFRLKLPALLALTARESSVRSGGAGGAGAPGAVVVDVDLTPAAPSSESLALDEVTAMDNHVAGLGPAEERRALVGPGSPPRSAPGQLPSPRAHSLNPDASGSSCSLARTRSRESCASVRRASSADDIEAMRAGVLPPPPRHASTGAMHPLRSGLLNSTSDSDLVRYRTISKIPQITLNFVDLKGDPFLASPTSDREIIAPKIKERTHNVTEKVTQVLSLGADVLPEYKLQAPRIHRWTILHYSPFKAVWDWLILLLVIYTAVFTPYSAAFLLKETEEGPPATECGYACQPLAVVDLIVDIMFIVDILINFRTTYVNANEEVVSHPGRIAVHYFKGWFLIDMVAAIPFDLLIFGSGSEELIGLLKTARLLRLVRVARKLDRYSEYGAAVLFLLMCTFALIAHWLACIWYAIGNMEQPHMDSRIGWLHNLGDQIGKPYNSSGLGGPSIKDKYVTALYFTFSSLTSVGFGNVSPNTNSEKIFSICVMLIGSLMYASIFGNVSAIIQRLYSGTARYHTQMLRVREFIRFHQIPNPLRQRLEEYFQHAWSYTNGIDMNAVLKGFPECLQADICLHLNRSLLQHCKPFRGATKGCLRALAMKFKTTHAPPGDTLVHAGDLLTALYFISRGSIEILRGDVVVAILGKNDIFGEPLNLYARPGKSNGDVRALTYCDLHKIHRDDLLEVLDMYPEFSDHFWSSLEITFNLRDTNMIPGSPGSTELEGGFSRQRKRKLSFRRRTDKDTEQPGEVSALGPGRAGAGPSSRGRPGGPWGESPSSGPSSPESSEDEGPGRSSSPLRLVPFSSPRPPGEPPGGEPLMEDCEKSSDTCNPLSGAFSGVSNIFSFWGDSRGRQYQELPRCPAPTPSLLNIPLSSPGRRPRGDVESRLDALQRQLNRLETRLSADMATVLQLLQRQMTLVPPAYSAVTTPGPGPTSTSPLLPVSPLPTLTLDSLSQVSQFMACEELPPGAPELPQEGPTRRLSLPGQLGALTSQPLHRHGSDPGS
row,Structure (SMILES),"hERG current change (%, negative = inhibition) at 10uM [%]"
1,S=C(NCc1ccco1)N1CCN(c2nc(-c3ccc(Cl)cc3)cs2)CC1,0.846
2,COc1ccc(Cn2c(-c3ccc(Br)cc3)c[n+]3ccccc23)cc1.[Br-],-8.08
3,CCOC(=O)c1nnn(-c2nonc2N)c1CSc1ccccn1,-1.78
4,CC1=N/C(=C/c2ccc([N+](=O)[O-])cc2)C(=O)N1c1ccc(Cl)cc1Cl,2.83
5,Cc1ccc(-c2nc(N)n(C(=O)c3cccnc3)n2)cc1,10.2
6,CCOc1ccc(CSC(=N)N)cc1[N+](=O)[O-].Cl,-65.5
7,O=c1[nH]c(=O)n([C@H]2C[C@H](O)[C@@H](CO)O2)cc1C(F)(F)F,11.9
8,C/C(=N/O)c1ccc(Oc2cnccn2)cc1,16.5
9,Cc1c(NC(=O)c2cc3ccccc3oc2=O)c(=O)n(-c2ccccc2)n1C,-5.53
10,Cc1ccc(C(=O)Nc2ccccc2C(=O)O)cc1NC(=O)COc1c(C)cccc1C,46.7
11,O=C(CSc1nc2ccccc2s1)N1c2ccccc2Sc2ccccc21,4.79
12,CC12CN3CC(C)(CN(C1)C3c1ccccc1)C2O (stereo not shown),19.2
13,Nc1nc(SCc2ccc3c(c2)OCCO3)n[nH]1,19.6
14,COC(=O)C1CCN(C(=O)NC2CC(=O)N(c3ccc4c(c3)OCCO4)C2)CC1 (stereo not shown),-25.9
15,Cn1c(-c2ccc(Cl)cc2)cnc1NCc1cc2c(cc1[N+](=O)[O-])OCO2.O=C(O)C(=O)O,-62.6
16,S=C(Nc1ccc2nc(-c3ccccn3)c(-c3ccccn3)nc2c1)N1CCCCCC1,-15.6
17,Cc1ccc(C(=O)N/N=C/C=C/c2ccccc2)o1,-47.7
18,COC(=O)c1sccc1NC(=O)Nc1cccc(OC)c1,-21.8
19,COC(=O)Cn1c(SCc2ccccc2)nc2ccccc21,-13.8
20,CC(C)C(=O)Nc1cccc(NC(=O)c2ccc(Cl)cc2Cl)c1,-34.4
21,O=C1CSc2ccc(C(=O)NCC(c3ccco3)N3CCCCC3)cc2N1 (stereo not shown),2.48
22,CCN(CC)S(=O)(=O)c1cc(C)ccc1SC,12.1

row,Structure (SMILES),"hERG current change (%, negative = inhibition) at 10uM [%]"
1,O=C(CSc1ccccc1)N/N=C/c1ccccc1O,14.4
2,CC(C)c1ccc(C(=O)OC2CCOC2=O)cc1 (stereo not shown),8.15
3,CCOc1cc(CNc2ccc(S(N)(=O)=O)cc2)cc(Cl)c1OC,-6.66
4,COc1cccc(Cn2nnc3c(=O)[nH]c(C4CCCN(C(=O)c5ccccc5Cl)C4)nc32)c1 (stereo not shown),-28.6
5,O=c1oc2ccccc2cc1NCc1ccccc1O,5.37
6,O=C(NNc1cc(Cl)ccc1Cl)C1CCC1,-5.51
7,Cc1ccc(NC(=O)c2ccc3c(SCC(=O)O)c4c(nc3c2)CCCC4)c(Br)c1,2.29
8,CCn1c(-c2ccc(F)cc2)n[nH]c1=S,11.4
9,CCOc1ccccc1CNC(=O)C1CCCN(c2ncnc3c2nc2n3CCCCC2)C1 (stereo not shown),-51.6
10,Cc1ccc(N2C(=O)CCC2(C#N)c2ccccc2)cc1 (stereo not shown),-2.12
11,CC(=O)N1CCN(c2ccccc2NC(=O)COc2ccc(Cl)cc2Cl)CC1,-22.3
12,Cc1ccc(C(=O)C2=C(O)C(=O)N(Cc3ccco3)C2c2ccc(N(C)C)cc2)o1 (stereo not shown),8.08
13,COC(=O)C1=C(c2ccccc2)C[C@@H]2CC[C@H]1N2C(=O)NCc1ccccc1,5.68
14,COc1ccccc1NC(=O)Nc1ccccc1Br,17.6
15,COc1ccccc1-n1c(SCC(=O)Nc2cccc(C(=O)O)c2)nnc1-c1ccccc1C,3.56
16,CCOC(=O)c1cnc(SCc2nc(N)nc(Nc3ccc(C)cc3)n2)nc1N,-28.8
17,N#Cc1c(NC(=O)/C=C/c2ccco2)sc2c1CCCC2,-2.98
18,CN(C(=S)NC(=O)c1ccc(F)cc1)C1CCCCC1,13.5
19,COc1ccccc1C(C#N)c1cccc(Cl)n1 (stereo not shown),0.219
20,Cc1nn(Cc2ccccc2Cl)c(C)c1NC(=O)c1ccn(C)n1,16.1
21,C=CCN(C(=O)CSc1nc2[nH]ncc2c(=O)n1-c1ccccc1OC)c1ccccc1,-15
22,CCOc1cc(C)nc(N2CCC(C(=O)Nc3ccccc3OCC)CC2)n1,5.62

row,Structure (SMILES),"hERG current change (%, negative = inhibition) at 10uM [%]"
1,CCCCCCC(=O)Oc1ccc(N2C(=O)CCC2=O)cc1,14
2,CCCOc1ccc(C(=O)Nc2ccc3c(c2)OCCO3)cc1,11.6
3,Cc1cc(C)c2sc(N(CCCN(C)C)C(=O)CN3C(=O)c4ccccc4C3=O)nc2c1.Cl,4.3
4,O=C(COc1ccccc1[N+](=O)[O-])Nc1ccc2c(c1)CCC2,6.68
5,COc1c(O)ccc(/C=N/NC(=O)c2ccc3c(c2)OCCO3)c1[N+](=O)[O-],7.36
6,Nc1ccc(-n2ccnc2)cc1,2.4
7,CCCC(=O)NC(=S)Nc1ccc(S(=O)(=O)N2CCc3ccccc32)cc1,16.9
8,Cc1cccc(C(=O)Nc2cccc(C(=O)N/N=C/c3cccc(C)n3)c2)c1,14.3
9,CCOc1ccc(N2C(=O)CC(SC(=NC)Nc3ccc4c(c3)OCO4)C2=O)cc1 (stereo not shown),13.5
10,Brc1ccc(-c2nnc(SCCC3OCCCO3)o2)cc1,-27.2
11,O=C(Nc1ccc(Br)cc1F)C1CCN(c2nnc(-n3cccc3)s2)CC1,-0.00282
12,CC1(C)CC(=O)C(C2C3=C(CC(C)(C)CC3=O)Oc3ccc4ccccc4c32)C(=O)C1 (stereo not shown),2.08
13,Cc1c(C(=O)NCc2c(F)cc(F)cc2F)oc2ccc(S(=O)(=O)N3CCOCC3)cc12,-13.1
14,COc1cc(CCC(=O)Nc2ccc(S(=O)(=O)N3CCCC3)cc2)cc(OC)c1OC,-24.2
15,Cc1ccccc1NC(=O)C(=O)c1cn(C)c2ccccc12,6.34
16,CCCN(CC(=O)Nc1ccccc1C)C(=O)c1nn(CC)c(=O)c2ccccc12,-15.3
17,CCO[C@H]1OC(C(=O)N2CCN(C)CC2)=C[C@@H](c2ccc(Br)cc2)[C@@H]1CCCO,-22.4
18,CN(C)S(=O)(=O)c1ccc(NC(=O)CCCNC(=O)c2ccc(Cl)cc2)cc1,5.54
19,COc1ccc(C2NC(=O)C(C#N)=C(S)N2c2cccc(C)c2)cc1OC (stereo not shown),46.2
20,COCCNC(=O)C1(C)Oc2ccccc2NC1=O (stereo not shown),12.4
21,O=C(CSc1nnc(NC(=O)c2ccccc2F)s1)NCc1ccc(F)cc1,8.65
22,Cc1ccccc1-c1n[nH]c(=S)o1,16.9

row,Structure (SMILES),"hERG current change (%, negative = inhibition) at 10uM [%]"
1,Cn1c(=O)n(Cc2ccc(Cl)cc2)c2ccccc21,-8.74
2,COc1cc(OC)cc(C(=O)NC(C(=O)NNC(=O)c2ccc(C)cc2)C(C)C)c1 (stereo not shown),-4.26
3,CCOc1cc(/C=N/NC(=O)c2ccccn2)ccc1OC(=O)c1ccc(F)cc1,-21.2
4,O=C(c1cc(-c2ccccc2)nn1CC1CC(c2cccnc2)=NO1)N1CCOCC1 (stereo not shown),-4.25
5,CCC(C)n1c(SCC(=O)NC2CCCC2)nc2ccccc2c1=O (stereo not shown),-16.5
6,CC(C)C[C@H](NC(=O)N1CCN(c2ccccc2)CC1)C(=O)O,-8.51
7,C(=N\n1c2ccccc2c2ccccc21)/c1ccccc1,11.6
8,CC(C)(C)NC(=O)C(OC(=O)c1cccs1)c1ccc(F)cc1 (stereo not shown),47.2
9,O=C(Nc1cccc(Cl)c1N1CCOCC1)c1cc([N+](=O)[O-])ccc1N1CCOCC1,-21.1
10,O=C(CCn1cccc1)Nc1ccccc1F,5.37
11,CCCCNC(=O)CSc1nnc(-c2ccc(S(=O)(=O)N3CCCC3)cc2)n1C,-2.75
12,NS(=O)(=O)c1cccc(NC(=S)NCc2ccc3c(c2)OCO3)c1,17.9
13,CCC(=O)N1c2ccc(S(=O)(=O)NCCc3ccccc3)cc2CC1C (stereo not shown),-21.5
14,CCc1nnc(NC(=O)CCC(=O)Nc2ccccc2)s1,26
15,COc1ccc(COC(=O)Nc2c(SC)nsc2SC)cc1,11.5
16,O=C1CSc2ccc(S(=O)(=O)N3CCN(c4ccccc4F)CC3)cc2N1,-0.236
17,CC(C)N1CCC(=NNc2ccc(S(=O)(=O)N3CCOCC3)cc2[N+](=O)[O-])CC1,-6.15
18,CSCC[C@H](NC(=O)COc1cc2c(c3oc(=O)c(C)c(C)c13)CCC(C)(C)O2)C(=O)O,0.569
19,c1ccc(-c2ccccc2OCCn2cncn2)cc1,-1.04
20,Cc1cc(C(F)(F)F)nn1Cc1n[nH]c(=S)n1-c1cccc(Cl)c1,-10.1
21,O=C(Cc1ccc(NC2=NC3CS(=O)(=O)CC3S2)cc1)Nc1ccc(F)cc1 (stereo not shown),2.9
22,O=C(O)c1[nH]nc2c1COc1ccccc1-2,7.78
